The list shows a part of the results.
system: HSkMC (human skeletal muscle cells); assay: cytotoxicity call (relative viability < 0.9); settings: 10 µM

| SMILES | cytotoxicity call |
| --- | --- |
| COc1ccc(S(=O)(=O)N(C)C[C@H]2OCCCC[C@@H](C)Oc3ccc(NS(C)(=O)=O)cc3C(=O)N([C@H](C)CO)C[C@@H]2C)cc1 | inactive |
| Cc1ccc(S(=O)(=O)N2C[C@@H](O)COC[C@H]3O[C@H](CC(=O)NCc4ccccc4Cl)CC[C@@H]32)cc1 | inactive |
| Nc1nc(=O)n([C@@H]2O[C@H](CO)[C@@H](O)[C@@H]2F)cc1I | inactive |
| CO[C@H]1CN(C)C(=O)c2ccc(NS(=O)(=O)c3cn(C)cn3)cc2OC[C@H](C)N(CCC(F)(F)F)C[C@H]1C | inactive |
| COc1cccc(NC(=O)C[C@@H]2CC[C@@H]3[C@@H](COc4ccc(NC(=O)C5CCOCC5)cc4C(=O)N3C)O2)c1 | inactive |
| O=C(N[C@@H]1CC[C@H](CCNS(=O)(=O)c2ccc(F)cc2)O[C@H]1CO)C1CC1 | inactive |
| C[C@H](CO)N1C[C@H](C)[C@@H](CN(C)Cc2ccncc2)Oc2ccc(NS(=O)(=O)c3cccs3)cc2C1=O | inactive |
| Cc1noc(C)c1NC(=O)N(C)C[C@H]1OCCCC[C@@H](C)Oc2ccc(NC(=O)Cc3ccccc3)cc2C(=O)N([C@H](C)CO)C[C@H]1C | inactive |
| C[C@@H]1CCCCO[C@H](CN(C)C(=O)c2ccncc2)[C@@H](C)CN([C@@H](C)CO)C(=O)c2cc(NC(=O)NC3CCCCC3)ccc2O1 | inactive |
| O=c1cc[nH]cc1 | inactive |
| C[C@@H]1CN([C@@H](C)CO)C(=O)c2cc(C3=CCCCC3)cnc2O[C@H]1CN(C)C(=O)CN1CCOCC1 | inactive |
| O=C(C1=C[C@@H](c2ccc(C(F)(F)F)cc2)C[C@@H](OCc2ccc(CO)cc2)O1)N1CCCCCCC1 | inactive |
| CCN(CC)CCNC(=O)COc1ccc(OC)cc1.Cl | inactive |
| CCCCOC(=O)CSc1n[nH]c(=O)[nH]c1=O | inactive |
| COc1ccc(cc1)S(=O)(=O)N1CC[C@]2(CC1)CN([C@H](CO)c1c2c2ccc(cc2n1C)OC)C(=O)CN(C)C | active |
| C[C@@H]1CN([C@H](C)CO)C(=O)Cc2cc(NC(=O)CCCN(C)C)ccc2O[C@@H]1CN(C)S(=O)(=O)c1cccs1 | inactive |
| NC[C@@H](O)CC(=O)O | inactive |
| COc1ccc(NC(=O)N(C)C[C@@H]2Oc3ccc(NC(=O)C4CC4)cc3CC(=O)N([C@@H](C)CO)C[C@@H]2C)cc1 | inactive |
| Cc1noc(C)c1NC(=O)N(C)C[C@@H]1Oc2c(NC(=O)c3cnccn3)cccc2C(=O)N([C@@H](C)CO)C[C@H]1C | inactive |

system: HepG2; assay: cytotoxicity call (relative viability < 0.9); settings: 10 µM

| SMILES | cytotoxicity call |
| --- | --- |
| C[C@@H]1CCCCO[C@H](CN(C)Cc2ccncc2)[C@H](C)CN([C@H](C)CO)C(=O)c2cc(NC(=O)CCC(F)(F)F)ccc2O1 | inactive |
| CC(C)NC(=O)Nc1ccc2c(c1)C(=O)N([C@@H](C)CO)C[C@@H](C)[C@@H](CN(C)Cc1ccccc1)OCCCC[C@@H](C)O2 | inactive |
| C[C@H]1CN([C@@H](C)CO)C(=O)Cc2cc(NC(=O)Nc3ccc(C(F)(F)F)cc3)ccc2O[C@@H]1CN(C)C(=O)Nc1ccc(F)cc1 | inactive |
| O=C(Cn1cc(COc2ccc(Cl)c(Cl)c2)nn1)NS(=O)(=O)c1cccc(OC(F)F)c1 | inactive |
| COc1ccc(S(=O)(=O)Nc2ccc3c(c2)C(=O)N([C@@H](C)CO)C[C@H](C)[C@@H](CN(C)S(=O)(=O)c2cn(C)cn2)OCCCC[C@H](C)O3)cc1 | inactive |
| Cc1cc(C)n(CCC(=O)O)n1 | inactive |
| C[C@@H]1CCCCO[C@H](CN(C)Cc2ccc3c(c2)OCO3)[C@@H](C)CN([C@@H](C)CO)C(=O)c2cc(NC(=O)Nc3ccc(C(F)(F)F)cc3)ccc2O1 | active |
| COCC#Cc1cnc2c(c1)C(=O)N([C@H](C)CO)C[C@@H](C)[C@@H](CN(C)S(=O)(=O)c1cccc(OC)c1)O2 | inactive |
| C[C@@H]1CN([C@H](C)CO)C(=O)c2cc(NC(=O)Nc3ccc(C(F)(F)F)cc3)ccc2O[C@@H](C)CCCCO[C@H]1CN(C)S(C)(=O)=O | active |
| C[C@@H]1CCCCO[C@@H](CN(C)S(=O)(=O)c2cccs2)[C@@H](C)CN([C@@H](C)CO)C(=O)c2cc(NS(=O)(=O)c3cn(C)cn3)ccc2O1 | inactive |
| C[C@@H]1CN([C@H](C)CO)S(=O)(=O)c2ccc(C#CC3CCCCC3)cc2O[C@H]1CN(C)C(=O)Cc1ccncc1 | inactive |
| CNC[C@H]1Oc2c(NS(=O)(=O)c3cn(C)cn3)cccc2C(=O)N([C@@H](C)CO)C[C@H]1C | inactive |
| C[C@@H]1CN([C@@H](C)CO)C(=O)c2cccc(N(C)C)c2O[C@@H]1CN(C)S(=O)(=O)c1ccc(Cl)cc1 | inactive |
| C[C@H](CO)N1C[C@H](C)[C@H](CN(C)S(=O)(=O)c2ccc(F)cc2)Oc2ccc(NC(=O)Nc3ccc(C(F)(F)F)cc3)cc2C1=O | inactive |
| COc1ccc(NC(=O)N(C)C[C@@H]2Oc3ncc(C#C[C@H](C)O)cc3C(=O)N([C@@H](C)CO)C[C@@H]2C)cc1 | inactive |
| CC(C)NC(=O)Nc1ccc2c(c1)C(=O)N([C@H](C)CO)C[C@@H](C)[C@H](CN(C)S(=O)(=O)c1ccc(Cl)cc1)O2 | inactive |
| C[C@H]1CN([C@@H](C)CO)C(=O)c2cc(NS(=O)(=O)c3ccc(Cl)cc3)ccc2O[C@@H]1CN(C)Cc1ccc(C(=O)Nc2ccccc2N)cc1 | inactive |
| COc1ccc(CNC(=O)C[C@H]2CC[C@H]3[C@@H](COc4ccc(NC(=O)C(C)C)cc4C(=O)N3C)O2)cc1 | inactive |
| Cc1nnc(SCC2=C(C(=O)O)N3C(=O)[C@@H](NC(=O)Cn4cnnn4)[C@H]3SC2)s1 | inactive |
| COC(=O)C1=C(C)NC(C)=C(C(=O)OC)C1 | inactive |

| SMILES | cytotoxicity call |
| --- | --- |
| C[C@@H]1CN([C@H](C)CO)C(=O)c2cc(-c3cccc(C(=O)N(C)C)c3)cnc2O[C@@H]1CN(C)S(=O)(=O)c1ccc(F)cc1 | inactive |
| COc1ccc(S(=O)(=O)N(C)C[C@H]2OCCCC[C@@H](C)Oc3ccc(NS(C)(=O)=O)cc3C(=O)N([C@H](C)CO)C[C@@H]2C)cc1 | inactive |
| Cc1ccc(S(=O)(=O)N2C[C@@H](O)COC[C@H]3O[C@H](CC(=O)NCc4ccccc4Cl)CC[C@@H]32)cc1 | inactive |
| Nc1nc(=O)n([C@@H]2O[C@H](CO)[C@@H](O)[C@@H]2F)cc1I | inactive |
| CO[C@H]1CN(C)C(=O)c2ccc(NS(=O)(=O)c3cn(C)cn3)cc2OC[C@H](C)N(CCC(F)(F)F)C[C@H]1C | inactive |
| COc1cccc(NC(=O)C[C@@H]2CC[C@@H]3[C@@H](COc4ccc(NC(=O)C5CCOCC5)cc4C(=O)N3C)O2)c1 | inactive |
| O=C(N[C@@H]1CC[C@H](CCNS(=O)(=O)c2ccc(F)cc2)O[C@H]1CO)C1CC1 | inactive |
| C[C@H](CO)N1C[C@H](C)[C@@H](CN(C)Cc2ccncc2)Oc2ccc(NS(=O)(=O)c3cccs3)cc2C1=O | inactive |
| Cc1noc(C)c1NC(=O)N(C)C[C@H]1OCCCC[C@@H](C)Oc2ccc(NC(=O)Cc3ccccc3)cc2C(=O)N([C@H](C)CO)C[C@H]1C | inactive |
| C[C@@H]1CCCCO[C@H](CN(C)C(=O)c2ccncc2)[C@@H](C)CN([C@@H](C)CO)C(=O)c2cc(NC(=O)NC3CCCCC3)ccc2O1 | inactive |
| O=c1cc[nH]cc1 | inactive |
| C[C@@H]1CN([C@@H](C)CO)C(=O)c2cc(C3=CCCCC3)cnc2O[C@H]1CN(C)C(=O)CN1CCOCC1 | inactive |
| O=C(C1=C[C@@H](c2ccc(C(F)(F)F)cc2)C[C@@H](OCc2ccc(CO)cc2)O1)N1CCCCCCC1 | inactive |
| CCN(CC)CCNC(=O)COc1ccc(OC)cc1.Cl | inactive |
| CCCCOC(=O)CSc1n[nH]c(=O)[nH]c1=O | inactive |
| COc1ccc(cc1)S(=O)(=O)N1CC[C@]2(CC1)CN([C@H](CO)c1c2c2ccc(cc2n1C)OC)C(=O)CN(C)C | active |
| C[C@@H]1CN([C@H](C)CO)C(=O)Cc2cc(NC(=O)CCCN(C)C)ccc2O[C@@H]1CN(C)S(=O)(=O)c1cccs1 | inactive |
| NC[C@@H](O)CC(=O)O | inactive |
| COc1ccc(NC(=O)N(C)C[C@@H]2Oc3ccc(NC(=O)C4CC4)cc3CC(=O)N([C@@H](C)CO)C[C@@H]2C)cc1 | inactive |
| Cc1noc(C)c1NC(=O)N(C)C[C@@H]1Oc2c(NC(=O)c3cnccn3)cccc2C(=O)N([C@@H](C)CO)C[C@H]1C | inactive |

Source: the antibiotic and cytotoxicity screens of Wong et al. (2023)
